# In ChEMBL document CHEMBL4888484, “Replenishing the malaria drug discovery pipeline: Screening and hit evaluation of the MMV Hit Generation Library 1 (HGL1) against asexual blood stage Plasmodium falciparum ,using a nano luciferase reporter read-out” (2022):
# Among all 150,000 compounds or so, about 540 (0.36%) showed an effect of 50% or more. Some of the results follow.
# System: Plasmodium falciparum
# Test: Primary screen in NF54 nanoGlo assay, in single point, at 2uM, 72h; a lower Z score goes with more inhibition
# Type: functional, Erythrocyte
# Conditions: timepoint 72 hour
Compound,% Inhibition [%],Z score
Cc1nc(C)c(C(=O)NCC2CCN(C(=O)[C@H]3C[C@@H]4C=C[C@H]3C4)CC2)s1,-4,0.8
O=C(Nc1ccc2c(c1)OC(F)(F)O2)c1cnn(-c2ccc(=O)[nH]n2)c1C(F)(F)F,-7,1.11
Cc1cc(NC(=O)N2CCOC[C@@H]2CC2CCOCC2)c(C)cn1,-13,2.18
Cc1ccc(F)c(C(=O)N[C@H]2C[C@H](c3cc(=O)[nH]cn3)C2)c1Cl,-18,1.81
CS(=O)(=O)N1CCC(C(=O)Nc2nc(-c3ccc4c(c3)OCCO4)cs2)CC1,-3,0.46
Cn1ccc(CC(=O)N2CC[C@H](c3cccc(Cl)c3)C2)n1,-5,0.62
Cc1ccc(NS(=O)(=O)c2c(C)[nH]c(-c3nnc(C4CC4)o3)c2C)cc1C,-7,0.96
O=S(=O)(c1cccc2nsnc12)N1CC[C@H](c2ncon2)C1,5,-0.83
O=S(=O)(CC1CCOC1)N1CCC(C(O)C(F)(F)F)CC1 (stereo unspecified),-14,1.24
COc1ccc(S(=O)(=O)NCc2cnn(C)c2)c2nonc12,-11,1.3
Cc1nn(-c2ccccc2)c(Oc2ccccc2)c1CN(CC1CC1)C(=O)c1ccccc1Cl,13,-1.29
CCCC[C@H](NS(=O)(=O)c1ccc(C(=O)N2CCOCC2)cc1)C1CCC1,-14,2.6
O=C(COc1ccccc1F)Nc1cnccc1-n1cccn1,-16,2.85
Cc1ccc(NCc2c[nH]cn2)c(Cl)c1C,-4,0.4
COc1ccccc1C(=O)N1CCC[C@H](CN2CCCC2)CC1,-1,0.2
Cc1cc(C(=O)N2CCN[C@@H](C)C2)c2ccc(Br)cc2n1,-6,0.85
Nc1nnc(CCn2cc(-c3cccc(Cl)c3Cl)nn2)s1,4,-0.57
C[C@@H](CN(C)C(=O)NCCc1cn2c(n1)CCCC2)c1nccs1,-5,0.78
O=C(NCCCn1ccnc1)c1cc(N[C@H]2C[C@@H]3CC[C@H]2C3)ccn1,1,-0.11
Cc1ncccc1C(=O)N1C[C@H]2CCCC(=O)N(Cc3cccc(F)c3)[C@H]2C1,33,-3.77
CC(C)N1CCN(c2ncc(Cl)s2)CC1=O,-3,0.55
O=C(C[C@@H]1C=CCC1)Nc1nc(-c2ccc(Cl)cc2)cs1,34,-1.26
Cc1ccc2c(c1Br)CN(C(=O)NC[C@H]1CCCO1)C2,-13,1.95
C=CCn1nc(C(=O)N2CCN(C)CC2)c2c1CC[C@H](NC1Cc3ccccc3C1)C2,3,-0.54
COc1cc(Cl)c(C)cc1NS(=O)(=O)c1cc(-c2cnn3c(C)cc(C)nc23)ccc1OC,-13,1.22
O=C(CCc1cn[nH]c1)NCC[C@H]1CCCCN1C1CCCC1,-7,1.22
CN(Cc1ccc[nH]1)C(=O)[C@@H](O)C1CCCCCCC1,7,-0.74

Compound,% Inhibition [%],Z score
CCn1ncc(-c2ccnc3cc(C(=O)Nc4cc(C)ccc4F)nn23)c1C,-5,0.82
Cc1ccc(NS(=O)(=O)c2cc(C(=O)NCc3ccccn3)ccc2Cl)cc1C,0,0.06
COC(=O)c1ccc(CO[C@@H](CN2CCN(C(=O)c3ccc(F)cc3F)CC2)c2cccc(OC)c2)cc1,-11,1.96
Cc1nc(-c2ccc(C(=O)NCC3(C)COC3)cc2)ccc1Cl,-3,0.39
CCn1cnc2c(c1=O)CCN([C@H]1CCCN(c3ccccc3Cl)C1=O)C2,-13,1.67
CC1COC(CO)CN1c1cc(C(F)(F)F)nc(-c2cccnc2)n1 (stereo unspecified),0,-0.05
C[C@@H](C(=O)N(C)Cc1nc2ccc(F)cc2[nH]1)N(c1ccccc1)S(C)(=O)=O,-2,0.39
CCNC(=O)N[C@@H]1CCOC[C@@H]1Nc1ccncn1,-10,1.23
O=C(OCc1ccccc1)[C@@H]1CCCN1C(=O)c1cnccn1,-8,1.4
O=C1[C@@H]2Cc3c([nH]c4ccccc34)CN2C(=O)N1C1CCCCC1,32,-3.57
O=C(Nc1cccc2c1CCCC2)c1cccc(S(=O)(=O)N2CCCCC2)c1,-16,1.73
CCC(C)(C)NC(=O)Nc1ccccc1,-16,3.29
O=C(c1cc(N2Cc3ccccc3C2)ccn1)N1CCOCC1,-11,2.12
CN1CCC[C@H](Nc2ncc(C(C)(C)C(=O)O)c(N3CCOCC3)n2)C1,-1,0.09
Cc1ccncc1Nc1nccn(C)c1=O,-7,0.83
COc1cnc([C@@H]2CCCN2C(=O)C2CCC(C)(C)CC2)[nH]c1=O,-13,2.04
O=S(=O)(CCC1CCCO1)NCC1CC12CCc1ccccc12 (stereo unspecified),0,-0.01
O=C(NC1CC2CCC1O2)N1C2C=C(c3ccccc3)CC1CC2 (stereo unspecified),-9,0.82
CCC(C)C(C)(O)CNC(=O)Cc1csc(-c2ccc(C)o2)n1 (stereo unspecified),-6,0.66
COCCN1C[C@]2(CCCN(c3cc(NC4CC4)nc(N)n3)C2)CCC1=O,-5,0.86
NC(=NCc1cccc(COCC(F)(F)F)c1)N1CCOCC1,30,-3.42
Cc1c(NC(=O)[C@H]2CCCO2)c(N2CCCC2)nn1C,-14,2.62
O=S(=O)(c1ccc2nc(NCc3cccs3)cnc2c1)N1CCCCC1,-13,1.44
Cc1nc(N(Cc2ccccn2)C[C@@H]2CCC(=O)N2)c2ccsc2n1,-15,2.12
Cc1ccc(Cl)cc1-n1nnc(C(=O)Nc2ccc3c(c2)OCCO3)c1C,-18,1.96
CCOc1ccc2nc(NC(=O)Nc3cn(CC(C)C)c(=O)c4ccccc34)sc2c1,3,-0.44
